# Data as given in publication PMC6919601, “Identification of Plasmodium dipeptidyl aminopeptidase allosteric inhibitors by high throughput screening” (PLoS ONE, 2019).
# Screen size: about 110,000 compounds; about 230 (0.21%) showed an effect of 50% or more. This is one part of the list.
# Target: DPAP1 (Plasmodium falciparum, UniProt Q8IIJ9)
# Experiment: primary screen, percent inhibition; read by cleavage of a fluorogenic dipeptide substrate; higher = more effect of the substance
# Parameters: species or system P. falciparum D10 trophozoite lysates; single well
# 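Also: 30 min substrate incubation versus DMSO and 10 µM JCP410 controls.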
# Sequence of DPAP1 (Q8IIJ9 whole entry, looked up): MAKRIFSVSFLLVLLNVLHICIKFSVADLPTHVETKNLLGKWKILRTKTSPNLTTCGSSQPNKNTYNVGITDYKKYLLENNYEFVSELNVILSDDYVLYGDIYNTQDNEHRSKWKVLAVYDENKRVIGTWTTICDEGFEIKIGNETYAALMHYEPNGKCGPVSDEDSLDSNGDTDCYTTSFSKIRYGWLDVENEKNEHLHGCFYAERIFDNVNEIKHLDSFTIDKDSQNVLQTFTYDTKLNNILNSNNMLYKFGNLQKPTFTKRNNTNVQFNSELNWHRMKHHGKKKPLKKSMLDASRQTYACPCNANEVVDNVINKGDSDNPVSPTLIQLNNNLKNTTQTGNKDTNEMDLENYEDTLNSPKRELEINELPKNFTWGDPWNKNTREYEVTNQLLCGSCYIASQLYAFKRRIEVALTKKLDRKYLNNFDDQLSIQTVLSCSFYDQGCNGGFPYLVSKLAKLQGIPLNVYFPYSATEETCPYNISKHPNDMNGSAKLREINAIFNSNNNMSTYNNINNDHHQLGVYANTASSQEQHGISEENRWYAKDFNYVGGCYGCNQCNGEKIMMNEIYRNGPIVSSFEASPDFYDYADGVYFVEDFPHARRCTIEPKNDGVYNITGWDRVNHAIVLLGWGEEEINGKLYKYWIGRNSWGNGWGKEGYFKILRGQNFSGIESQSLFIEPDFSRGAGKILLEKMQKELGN
row,Compound,% Inhibition @ 10 uM
1,C#CCOc1ccc(/C=C2\C(=O)ON=C2C)cc1OC,-0.85%
2,COCCCNC(=O)c1c(NC(=O)c2cc(=O)c3ccc(C)cc3o2)sc2c1CCCC2,0.248%
3,O=C(O)C1CCN(C(=O)c2ccccc2C(=O)N2CCC(C(=O)O)CC2)CC1,-3.47%
4,Cc1ccc(C(C)C)cc1Oc1cc(Cl)nc(N)n1,-2.41%
5,CCN(C(=O)c1c(Cl)nc(C)c(Cl)c1C)c1ccccc1,1.64%
6,COc1cc(OC)cc(C(=O)Nc2nc(-c3nnn(-c4cc(F)ccc4F)c3C)ns2)c1,-1.19%
7,CC(NC(=O)c1ccccc1N(C)S(C)(=O)=O)c1ccccc1 (stereo not shown),-3.77%
8,Cc1ccc(OCCSCc2nc3ccccc3[nH]2)cc1,-1.74%
9,Cc1ccc(C(=O)N/C(=C/C=C/c2ccccc2)C(=O)N2CC3CC(C2)c2cccc(=O)n2C3)cc1C (stereo not shown),19%
10,CCOc1ccc(CCNC(=O)c2oc3cc4sc(N(C)C)nc4cc3c2C)cc1,-3.81%
11,Cc1ccc(S(=O)(=O)NCC(C)NS(=O)(=O)c2ccc(C)cc2)cc1 (stereo not shown),-3.72%
12,CC1CCN(S(=O)(=O)c2cccc3cccnc23)CC1,9.33%
13,CCc1ccccc1-n1c(SCC(=O)N2CCCC2)nc2nncc-2c1O,-2.21%
14,Cc1ccc(/C=C2\N=C(c3ccc(Br)o3)OC2=O)cc1,0.78%
15,Cc1noc2ncnc(N3CCCC(C(=O)Nc4nccs4)C3)c12 (stereo not shown),3.53%
16,CC(=O)c1ccc(C2CCC(C(C)=O)CC2)cc1 (stereo not shown),-3.26%
17,CCOc1ccc(C2C(C#N)=C(N)SC(N)=C2C#N)cc1OC,57.7%
18,CC(=O)c1cc(-c2ccccc2)n(CC(=O)NCCc2ccccc2)c1C,1.47%
19,CC(=O)c1ccc(N2CCN(C(=O)c3cccc(F)c3F)CC2)c(F)c1,-6.08%
20,NS(=O)(=O)c1ccc(NC(=O)/C=C/c2ccccc2)cc1,-1.86%
21,CN(C)CCN(C)Cc1ccc(Cl)cc1Cl,-0.856%
22,COc1ccccc1N1CCN(C(=O)CN(c2cccc(C)c2)S(=O)(=O)c2ccc(C)cc2)CC1,-9.13%
23,CC(=O)Nc1ccc(S(=O)(=O)Nc2ccc(F)cc2)cc1,-1.77%
24,COc1ccc(C2CC(O)=C/C(=N/c3ccccc3C)C2)cc1OC (stereo not shown),-4.48%
25,CC1CCN(C(=O)C2CC(c3ccc(F)cc3)=NO2)CC1 (stereo not shown),1.24%

row,Compound,% Inhibition @ 10 uM
1,FC(F)(F)c1cc(-c2ccco2)nc(NCC2CCCO2)n1 (stereo not shown),1.83%
2,Clc1ccc(OCc2nnc3c4cnn(Cc5ccccc5)c4ncn23)cc1,1.31%
3,CC1CCCN(C(=O)Cn2nnc(-c3ccccc3F)n2)C1 (stereo not shown),2.17%
4,CCCCOc1ccc(/C=C2\SC(=O)NC2=O)cc1,3.86%
5,Nc1ccccc1C(=O)Nc1ccc(Cl)cc1,-0.95%
6,CCCCS(=O)(=O)c1oc(-c2cccs2)nc1S(=O)(=O)c1ccc(C)cc1,3.74%
7,Cc1cc(C)n(CCc2nc3c4ccccc4nc(SCC(=O)NCc4ccccc4)n3n2)n1,1.74%
8,COC(=O)c1cc2nc(-c3ccc(F)cc3)cc(C)n2n1,-1.93%
9,O=C(Nc1ccccc1)NS(=O)(=O)c1cnccc1Sc1ccccc1Cl,-0.46%
10,COc1ccc(C2C(=O)N(C3CCCCC3)CC(=O)N2Cc2cccs2)cc1OC (stereo not shown),1.27%
11,O=C1C2C(C(=O)N1c1ccc(F)cc1)C1C=CC2C12CC2 (stereo not shown),-1.06%
12,O=S(=O)(c1ccc(-c2csc(-c3ccc(Cl)cc3)n2)cc1)N1CCCC1,-2.73%
13,COCCNC(=O)CSc1cn(CC(=O)N2CCOCC2)c2ccccc12,-4.02%
14,COc1ccc(N(CC(=O)Nc2cc(C)cc(C)c2)S(C)(=O)=O)cc1,-9.2%
15,CCCCCCS(=O)(=O)C1CCS(=O)(=O)C1 (stereo not shown),-0.0267%
16,CN1CCN(Cc2c(O)ccc3c4c(c(=O)oc23)CCC4)CC1,3.25%
17,COc1ccc(C(=O)NCC2(C)CC(NC(=O)c3ccc(OC)cc3)CC(C)(C)C2)cc1 (stereo not shown),0.389%
18,N#CC1=C(N)Oc2[nH]nc(-c3ccccc3)c2C1c1cccnc1 (stereo not shown),7.93%
19,O=C(CN(c1ccccc1Cl)S(=O)(=O)c1ccccc1)N1CCc2ccccc2C1,-6.77%
20,O=C(O)CCNC(=O)COc1ccc2c3c(c(=O)oc2c1)CCCC3,3.06%
21,CC(=O)Nc1ccc(CN2CCN(c3ccc(Cl)cc3)CC2)cc1,4.73%
22,Cc1ccc(S(=O)(=O)NCCc2nnc3ccc(SCc4c(F)cccc4Cl)nn23)cc1,0.823%
23,COc1nc(Cl)cc(C)c1C(=O)NCc1ccccc1,4.81%
24,O=C(O)CCCn1cc(NC(=O)Cc2ccccc2)cn1,-2.05%
25,CCOc1ccc(N2C(=O)/C(=C/c3ccc(C)cc3)C(=O)NC2=S)cc1,-3.09%

row,Compound,% Inhibition @ 10 uM
1,COC(=O)c1c(NC(=O)/C=C/c2ccc(OC)c(OC)c2)sc(C)c1C,-0.148%
2,COc1cc(C=C2C(=O)OC3(CCCCC3)OC2=O)ccc1OCc1cccc(C(=O)O)c1,18.3%
3,Cc1oc(-c2ccccc2Cl)nc1CSCC(=O)NC1CCCC(C)C1C (stereo not shown),3.99%
4,Cc1cccc(C)c1N(CC(=O)NCCSc1ccccn1)S(C)(=O)=O,4.75%
5,CC1=NCCN1S(=O)(=O)c1ccc(Cl)cc1,-1.96%
6,COc1ccc(C(=O)/C=C/c2coc3ccc(C)cc3c2=O)cc1,4.54%
7,COc1ccc(-c2nn(CCC(=O)O)cc2/C=C2\SC(N)=NC2=O)cc1OC,0.778%
8,COc1ccc(-c2cc(-c3cccs3)nc(SCC(N)=O)c2C#N)cc1OC,1.02%
9,COc1cc2c(cc1OC)C(c1cccnc1)N(C)CC2 (stereo not shown),4.55%
10,O=C1N=CC(N2C(=O)c3ccc([N+](=O)[O-])cc3C2=O)C(=O)N1 (stereo not shown),-12.6%
11,CCCNC(=O)C1CCCN(c2nnc(C)c3c(C)n(-c4ccccc4)nc23)C1 (stereo not shown),-4.74%
12,Cc1ccc2c(CNC3CCCCCCC3)c(C(=O)O)n(C)c2c1,-4.46%
13,N#Cc1c(NC(=O)Cn2nc(C(F)F)cc2C(F)F)sc2c1CCCC2,3.65%
14,O=S(=O)(Nc1ccc(Br)c2cccnc12)c1cccc2cccnc12,-3.66%
15,CCCOc1ccc(C(O)CCNC(CC(=O)O)c2ccccc2)cc1 (stereo not shown),-4.75%
16,Cc1ccc(S(=O)(=O)N2CCCC(C(=O)NC(C)CCc3ccccc3)C2)cc1 (stereo not shown),-6.56%
17,CC(C)N1CN(CCc2ccccc2)c2nc3ccccc3n2C1,0.221%
18,O=C(NCc1ccccc1F)c1nc(-c2ccc(Br)o2)no1,-5.72%
19,COc1ccc(-c2noc(CNC(=O)c3ccc(Br)o3)n2)cc1,0.486%
20,COc1ccccc1-c1cc(-c2ccccc2)nc(N2CCCCC2)n1,-3.93%
21,Cc1ccc(C2c3c(oc4ccccc4c3=O)C(=O)N2c2nncs2)cc1 (stereo not shown),-5%
22,Cc1nn(CC(=O)N2CCCCC2)c(=O)c2nccn12,21.1%
23,CC(C)Oc1ccccc1C1C(C#N)=C(N)Oc2[nH]nc(-c3ccccc3)c21 (stereo not shown),2.38%
24,CCN(CC)CCn1c(=O)n(C)c(=O)c2[nH]cnc21,-4.82%
25,CCOC(=O)c1cc2c(=O)n3ccccc3nc2n(CCOC)/c1=N\C(=O)C1CCCCC1,-0.363%

row,Compound,% Inhibition @ 10 uM
1,CC(CNC(=O)CCNS(=O)(=O)c1ccc2nc(O)ccc2c1)c1ccccc1 (stereo not shown),2.73%
2,C1CCc2c(c(N3CCOCC3)nc3sc4c(NCCN5CCOCC5)nnnc4c23)C1,2.95%
3,Cc1ccc(S(=O)(=O)NC(=O)c2ccccc2O)cc1,3.72%
4,CC1(C(=O)O)CC(=O)N=C2C=CC=CN21 (stereo not shown),4.26%
5,COC(=O)c1c(OC)cc(C)nc1C,4.41%
6,Cc1nc2ccc(C(=O)N3CCN(c4ccccc4)CC3)cc2s1,-5.14%
7,COc1nc(-c2ccc(C)cc2)ccc1-c1noc(C)n1,2.1%
8,CC(C)=C1C2C=CC1C1C(=O)N(c3ccccc3C#N)C(=O)C21 (stereo not shown),2.38%
9,CC(C(=O)O)N1C(=O)CSC1=O (stereo not shown),1.72%
10,CC1(C)CC(=O)C(=Cc2c[nH]c3ccccc23)C(=O)C1,0.685%
11,O=C(Nc1cccc(NC(=O)c2ccc3c(c2)OCO3)n1)c1ccc2c(c1)OCO2,-1.07%
12,CCOc1cc(CN2CCN(c3cccc(Cl)c3)CC2)ccc1O,-3.65%
13,CCOc1ccc(C2(CC(=O)Nc3ccccc3)C(=O)c3ccccc3C2=O)cc1OC,-5.46%
14,C=C(C)Cn1c(C(C)NC(=O)c2ccccc2OC)nc2ccccc21 (stereo not shown),4.77%
15,c1nc(N2CCCC2)c2c3c(sc2n1)CCCC3,-3.92%
16,COc1ccc(N(Cc2ccc(F)cc2)C(=O)c2cccc([N+](=O)[O-])c2)cc1,-0.0372%
17,CC(=O)N1CCN(C2CCN(Cc3ccccc3)CC2)CC1,0.472%
18,COc1cccc(C(=O)Nc2cc(Cl)ccc2C)c1,-1.48%
19,Cc1cc(C)c(NC(=O)Nc2ccc(Cl)cc2)c(C)c1,-2.28%
20,O=C(CCCN1C(=O)c2ccccc2Sc2ncccc21)N1CCN(C2CCCCC2)CC1,-2.68%
21,COc1cc(/C=C2\NC(=O)NC2=O)ccc1OCCCOc1ccc(C)cc1C,-7.58%
22,COc1ccc(CN2CCN(C)CC2)c(C)c1C,4.67%
23,COc1cc(NC(=O)c2ccc(Cl)cc2)c(Cl)cc1NC(=O)c1ccccc1-c1ccccc1,-2.47%
24,Cc1nn(Cc2cccc(C(=O)NCc3ccc4c(c3)OCO4)c2)c(C)c1Cl,-1.33%
25,C=CCOc1ccc(/C=C2\N=C(c3cccs3)OC2=O)cc1OC,-0.357%
